# According to PubChem BioAssay (NCATS):
# Values joined by “and” are separate entries in the source; they are usually repeats but may differ in a detail not shown here. Equal entries are not always repeated. The shares of active, inactive and inconclusive entries below differ from those in the screen. Potencies of inconclusive entries are doubtful fits and often do not repeat. Some compounds were tested as several samples or in several runs, with calls that do not always agree. Active and inactive are the calls of the source. Calls come from the whole dose curve; as a rule, active = well fitted inhibition curve with a large enough effect; inconclusive = small, poorly fitted or top-dose-only effect; inactive = no such curve, though single readings can be large or run the other way.
# Experiment: qHTS assay for measurement of the activity of small molecule inhibitors on Zika virus induced Caspase-3 activity in human astrocytoma cells (AID 1224859)
# Conditions: SNB-19 ZIKV-induced caspase-3/7, luminescence, 6 h; series mostly up to 45.7 µM; activity change, negative = inhibition: at the top concentration
# Excerpt: National Center for Advancing Translational Sciences [NCATS]
# Johns Hopkins University School of Medicine
# Increase in the Caspase-3 activity indicates an activation of apoptosis cell death pathway caused by Zika virus infection in certain types of neuronal cells including human neural progenitor cells (hNPCs), astrocytes, and astrocytoma cell line (SNB-19). This cell-based caspase-3 activity assay measures the increased caspase-3 activity in the astrocytoma cell line (SNB-19) after a 6-hour Zika virus infection with a luminescence readout. A decrease in the luminescence signal in this assay by small molecule treatment indicates an inhibitory effect of that small molecule on the Zika virus induced caspase-3 activity that may correlate with its effect on reduction of Zika virus caused cell death.
# The medium for SNB-19 cells is composed of RPMI 1640 (ATCC, Cat.# 30-2001), 10% fetal bovine serum (FBS) (GE healthcare Life Sciences, Cat.# SH30071.03), and 1% Pen/Strep (Gibco, Cat.# 15140-122). A Caspase-Glo 3/7 assay kit (catalog number G8092; Promega, Madison, WI) was used to detect caspase-3 activity induced by Zika virus infection in human cells. The reagent mixture was reconstituted as described in the protocol from the manufacturer. Polystyrene tissue culture treated and PDL coated white plates were obtained from Greiner Bio-One (Monroe, NC). Cells were seeded in 384- or 1536-well assay plates and cultured at 37 C with 5% CO2 for 16 to 20 hours. The typical cell seeding density in the 1536-well plate assay is 250 cells/well in 3ul medium for SNB-19 cells in tissue culture treated plates. Compounds were added to cells and incubated for one hour before addition of ZIKV solution to cells (2 FFU/cell). After incubation at 37 C with 5% CO2 for 6 hours, the reagent mixture of Caspase-Glo 3/7 assay kit was added to each well, followed by incubation at room temperature for 30 minutes. The luminescence intensity of the assay plates was measured using a ViewLux plate reader (PerkinElmer). Data were normalized by using the cell-containing wells without ZIKV as a negative control (0% induction of caspase 3/7 activity) and wells containing ZIKV infected cells (Caspase-3 activity induced) as a positive control (100% induction of caspase 3 activity). The percentage inhibitions of the increased Caspase-3 activity by small molecule inhibitors were then calculated.
# Potency is the fitted concentration of half-maximal effect; tags give direction and shape of the fitted curve.
Structure (SMILES),Potency,"activity change, negative = inhibition"
CN1CCN(c2cc3c(nn2)Oc2ccccc2N3C)CC1,"inconclusive: 11.2 µM [inhibitor, partial curve, poor fit]",–
O=C(c1ccc(F)c(F)c1Nc1ccc(I)cc1F)N1CC(O)([C@H]2CCCCN2)C1,–,inactive: 54.3%
CS(=O)(=O)CCNCc1ccc(-c2ccc3ncnc(Nc4ccc(OCc5cccc(F)c5)c(Cl)c4)c3c2)o1,inactive,–
CCCCCCCCCCCCCCCCCC(=O)O,"inconclusive: 14.1 µM [inhibitor, single point]",–
CN1CCC(=C2c3ccccc3CCc3sccc32)CC1,"inconclusive: 37.2 µM [inhibitor, single point]",–
Cc1[nH]c(C=C2C(=O)Nc3ccc(S(=O)(=O)Cc4c(Cl)cccc4Cl)cc32)c(C)c1C(=O)N1CCC[C@H]1CN1CCCC1,–,inactive: 24%
COc1ccc(-c2cc(=O)c3c(O)cc(O)cc3o2)cc1O,"inconclusive: 20.9 µM [inhibitor, partial curve, poor fit]",–
Cc1cccc(/C=C/c2ccccc2)n1,"inconclusive: 12.6 µM [inhibitor, partial curve, poor fit]",–
O=C1NC(=O)/C(=C/c2ccc(-c3ccc(F)cc3O)o2)S1,"inconclusive: 10 µM [inhibitor, partial curve, poor fit]",–
C#CC1(O)CC[C@H]2[C@@H]3CCC4=CCCC[C@@H]4[C@H]3CC[C@@]21C (stereo not given in full),"inconclusive: 14.1 µM [inhibitor, single point]",–
Cc1cccc(C#Cc2ccccc2)n1,active: 3.98 µM,–
COc1cccc(-c2ccc(NC(=O)C3=C(C(=O)O)CCC3)c(F)c2)c1,active: 2.35 µM,–
O=c1c(-c2ccc(O)cc2)coc2cc(O[C@@H]3O[C@H](CO)[C@H](O)[C@H](O)[C@H]3O)ccc12,"inconclusive: 20.9 µM [inhibitor, partial curve, poor fit]",–
c1ccc(C(NCCNC(c2ccccc2)c2ccccc2)c2ccccc2)cc1,–,inactive: -9.53%
O=C(O)[C@@H](c1ccc(OCc2ccc3ccccc3n2)cc1)C1CCCC1,active: 13.2 µM,–
CCCCCCCCCCCCCCCC(=O)NCCO,inactive,–
CC(=NNC(=S)N1CCC1)c1ccccn1,"inconclusive: 37.2 µM [inhibitor, single point]",–
Clc1ccc(C(Cn2ccnc2)OCc2ccc(Sc3ccccc3)cc2)c(Cl)c1 (stereo not given),"inconclusive: 12.6 µM [inhibitor, partial curve, poor fit]",–
COc1ccc(C=CC(=O)Nc2ccccc2C(=O)O)cc1OC,active: 2.64 µM,–
CC(=O)Oc1cccc2c1C(=O)c1c(OC(C)=O)cc(C(=O)O)cc1C2=O,"inconclusive: 35.5 µM [inhibitor, single point]",–

Structure (SMILES),Potency,"activity change, negative = inhibition"
CN1[C@@H](CC(=O)c2ccccc2)CCC[C@H]1C[C@H](O)c1ccccc1,"inconclusive: 25.1 µM [inhibitor, single point]",–
O=C(O)CCC(=O)c1ccc(-c2ccccc2)cc1,"inconclusive: 28.2 µM [inhibitor, single point]",–
CCCCCCCCCCCCOCCOCCOCCOCCOCCOCCOCCOCCOCCO,–,inactive: 7.74%
O=c1c(-c2ccc(O)cc2)coc2cc(O)ccc12,"inconclusive: 16.6 µM [inhibitor, partial curve] and inconclusive: 10 µM [inhibitor, partial curve, poor fit]",–
COc1ccc(-c2coc3cc(O)ccc3c2=O)cc1,"inconclusive: 5.9 µM [inhibitor, full curve, poor fit]",–
OCC1O[C@H](O)C(Cl)C(O)C1O (stereo not given in full),–,inactive: -1.52%
CC(C)(C)c1nnc(NS(=O)(=O)c2ccc(N)cc2)s1,"inconclusive: 12.6 µM [inhibitor, partial curve, poor fit]",–
CC(C)(C)NC[C@H](O)COc1nsnc1N1CCOCC1,"inconclusive: 3.16 µM [inhibitor, partial curve, poor fit]",–
Cc1c(N)c(=O)n(-c2ccccc2)n1C,"inconclusive: 14.1 µM [inhibitor, single point]",–
Nc1ccccc1N,"inconclusive: 11.2 µM [inhibitor, full curve, poor fit]",–
O=c1c2ccccc2nc2n1CCc1c-2[nH]c2ccccc12,"inconclusive: 5.9 µM [inhibitor, full curve, poor fit] and active: 7.94 µM",–
COc1ccc(/C=C/C(=O)Nc2ccccc2C(=O)O)cc1OC,active: 7.08 µM,–
Cc1ccnc(NS(=O)(=O)c2ccc(N)cc2)n1,–,inactive: -14.3%
COc1cc2c(Oc3ccc(NC(=O)C4(C(=O)Nc5ccc(F)cc5)CC4)cc3F)ccnc2cc1OCCCN1CCOCC1,–,inactive: 34.9%
O=C(CCN1CCN(C(=O)OCc2cc(Cl)cc(Cl)c2)CC1)c1ccc2[nH]c(=O)oc2c1,"inconclusive: 18.7 µM [inhibitor, partial curve, poor fit]",–
C[C@H](NC(=O)C(=O)Nc1ccccc1C(C)(C)C)C(=O)N[C@@H](CC(=O)O)C(=O)COc1c(F)c(F)cc(F)c1F,"inconclusive: 1.32 µM [inhibitor, full curve]",–
Cc1cc(O)c2c(c1)C(=O)c1cc(O)cc(O)c1C2=O,"active: 9.35 µM and inconclusive: 6.31 µM [inhibitor, partial curve, poor fit]",–
Cc1[nH]c(=O)c(C#N)cc1-c1ccc2nccn2c1,active: 4.69 µM,–
COc1ccnc(CS(=O)c2nc3ccc(OC(F)F)cc3[nH]2)c1OC (stereo not given),"inconclusive: 35.5 µM [inhibitor, partial curve, poor fit]",–
CNC(=O)Oc1ccc2c(c1)[C@]1(C)CCN(C)[C@@H]1N2C,"inconclusive: 35.5 µM [inhibitor, single point]",–
